B1: chr7:32869000:32869101:-|3pUTR|ENSG00000170852|msi1|FALSE|bound_elsewhere (ssRNA)
RNA: GGGAGUUCUACAGUCCGACGAUCAAUUGAGAAACUUUAUGUGUAAUCAUGAGAGUAUAAGAAUCUGGAUUAUCUAACAUUGUUAGCCCUGUGUAUGUACAGUUCAAAAAGUUCAUUUAUAAAAGUAGUUUCCUGUUCCUAGUGCAACAGAGGAUUGAGCAUCA
B2: chr1:17407970:17408071:-|3pUTR|ENSG00000179051|msi1|total|mutant (ssRNA)
RNA: GGGAGUUCUACAGUCCGACGAUCGGGUACCGUUCUGCUGACCCAGCUCCCUUCCGUCACGUUUGCUUGGCUCUGGUACCAAACCGUUGGGAUUACCGAAGAGUCCCCUUCCUUGCGUGUCAGCACGGAUGCUGUGACUGCCACCAACAGAGGAUUGAGCAUCA
B3: chr11:69651733:69651797:+|3pUTR|ENSG00000110092|msi1_unk|total|mutant (ssRNA)
RNA: GGGAGUUCUACAGUCCGACGAUCAAAACAUUUUAAAAACACCGAAAAAUUCAGCAAACCAUUUUUAAAGCCGAAGAGGGUUUCCGGCCGAAAAACAUAUUCUUGUGCUUUUCCUGAUAAAGCACAGCUGCCGUGGGGUUCCCGCAACAGAGGAUUGAGCAUCA
B4: ENSG00000198589:be:win_9701|3pUTR|ENSG00000198589|bound_else_gene|NA|bound_elsewhere_windowed (ssRNA)
RNA: GGGAGUUCUACAGUCCGACGAUCCAAGGAUUUGGAAUGAACAAUUCAGUUUGACAGAAAAAGCUGAAUAAAAUGGCAUCUGUAAUUGAAUUGUUGGAAAUGCCUUUUUUGCUCCUAAAUUUUAAACAUCAUUAAUAAAAUAAUCAACAGAGGAUUGAGCAUCA
B5: ENSG00000077232:stop:overlap|stop_codon|ENSG00000077232|stop_codon|NA|stop_codon (ssRNA)
RNA: GGGAGUUCUACAGUCCGACGAUCUGUUGGUUAAUAUCUUUCAUCAGUUGUGGAAACCUGUCAGCUGGAUGGUCUUGUUAAUGUAGGAUGGAUGGACUGUGCCACCCAGGAUAACCUUUGUAAAAGCUUAGAUAUUACAACAAGCAACAGAGGAUUGAGCAUCA
B6: chr9:20999508:21007036:-|three_prime_utr|ENSG00000188921|control|control|control (ssRNA)
RNA: GGGAGUUCUACAGUCCGACGAUCAUACCUUGUAUUUGAUAAAAAUCCAUUACAUGAAAUAACUGCACAUACCCCCAAAACUCUAGACAUAACAGGCUAUGUUUUUCACACAUUGUAUUUUUAAGACAUAUAUAUUCUCCAUACCAACAGAGGAUUGAGCAUCA
B7: chr13:52461607:52461862:+|CDS|ENSG00000136108|unk|total|mutant (ssRNA)
RNA: GGGAGUUCUACAGUCCGACGAUCGUUACAAUCCGGAAAGGGCCUCAUGAAAAAGAACUAUUACAAUCAAAAACAGCUUUAUCCCGUGUCAAAACCAGUUCUUCUCAAGGUAUAAUAAGAAAUAAGACUCUAUCAAGAUCCAUACAACAGAGGAUUGAGCAUCA
B8: ENSG00000074590:stop:overlap|stop_codon|ENSG00000074590|stop_codon|NA|stop_codon (ssRNA)
RNA: GGGAGUUCUACAGUCCGACGAUCACAUGGAUGAUGUGACUCAGGUCUACAAGCAAGCGCUGGAGAUCUGCAGCAAGCUCAACUAGCAUUCCAGGGCGCCCAGGGGCGGGCGGGGGUACGAGGGAGGAAGGGGAGCAAGACUUGCAACAGAGGAUUGAGCAUCA
B9: chr12:122341087:122341188:-|CDS|ENSG00000130779|unk|total|mutant (ssRNA)
RNA: GGGAGUUCUACAGUCCGACGAUCAGAAUUUGCUGAACUAAAAACACAAACCGAGAAAAUGAGACCCGAUUACCAACACGAAACCGAAAAUUUGCAGAAUCAACAAGACUCUGAACGGGCUGCCCAUGCUAAAGAGAUGGAAGCCAACAGAGGAUUGAGCAUCA
B10: chr5:72208839:72208948:+|3pUTR|ENSG00000131711|msi1_unk|FALSE|overlapping (ssRNA)
RNA: GGGAGUUCUACAGUCCGACGAUCCUUGCCUCUCUUUAGUCACCUGUCACAGGAGGUUCCUGCUCAGUAAUGAUAUUGUGAGUUAGGAUAAUAACUUUUUUUUUUUGUGCUUCAGAUUUAGAAGAAAAGAUCCUGUUUCCAUUUCAACAGAGGAUUGAGCAUCA
B11: chr1:85267750:85267865:-|CDS|ENSG00000142867|unk|FALSE|unique (ssRNA)
RNA: GGGAGUUCUACAGUCCGACGAUCAGGAGAAUCCAGCACGACGCCCUUUUUUUCUACUAAUUCUUCUCUGAAUUUGCCUGUUCUAGAAGUAGGCAGAACUGAAAAUACCAUCUUCUCUUCAACUACACUUCCCAGACCUGGGGACAACAGAGGAUUGAGCAUCA
B12: chr1:206732925:206733026:+|3pUTR|ENSG00000162889|msi1|total|mutant (ssRNA)
RNA: GGGAGUUCUACAGUCCGACGAUCAAGUGAGCAAGGUGCUCUUGAACCUGUGCUCAUUUUGCAAUUUUAUCAGUAAUUUGACUCCGAGUUUUUACGAAACCUCUUUUGUUGUCCUUGCCCCACUCCUCUCCACCAGACGCCUUCCAACAGAGGAUUGAGCAUCA
B13: chr2:169127108:169128830:-|three_prime_utr|ENSG00000081479|control|control|control (ssRNA)
RNA: GGGAGUUCUACAGUCCGACGAUCCUGCAACAGAAGACACUUUUAAAGACACCGCAAAUCUUGUUAAAGAAGACUCUGAAGUAUAGCUAUACCAGCUAUUUAGGGAAUAAUUAGAAACACACUUUUGCACAUAUAUUUUUUACACAACAGAGGAUUGAGCAUCA
B14: chr1:35420597:35420698:+|3pUTR|ENSG00000146463|msi1|FALSE|bound_elsewhere (ssRNA)
RNA: GGGAGUUCUACAGUCCGACGAUCGUUCCUCUUAUUUUGUCUUUUGCACCAGUUUCUGGAGGCCCUUGUCAUUUCAAAAAGGAUAGUCUCUUUUCUUACUCUGGCAAACCUGUGAGUGAUUCCACAAAGAUACAGUAUUACUUACAACAGAGGAUUGAGCAUCA
B15: chr1:51271806:51271833:+|3pUTR|ENSG00000123091|msi1_unk|FALSE|overlapping (ssRNA)
RNA: GGGAGUUCUACAGUCCGACGAUCCAUUUGGGUCAAGGUUUUAUUAAAAGCUACAUUUUAUAACACUGGCACACACAAAAAAGUAGUUUUAAGCUUGUUUGCACAGUUCUUUUUUUCCAUUGGAAAUGGAAUUCAUUGCCUUAGCAACAGAGGAUUGAGCAUCA
B16: chr1:18907414:18907603:-|3pUTR|ENSG00000169991|msi1|total|mutant (ssRNA)
RNA: GGGAGUUCUACAGUCCGACGAUCCCUUGAUUUCCCUGAUAACUUGAUGUUCUUCCCUCCCUCGCCAGCCAACAACCGAGGCUCCGAGAUCUGUAAUUUCUCUGUGAGAAAGUCUGAAGGGGCCAGGCCUGGUCUCUGCUCCCUCAACAGAGGAUUGAGCAUCA
B17: chr11:119418913:119419014:-|3pUTR|ENSG00000154096|msi1|FALSE|unique (ssRNA)
RNA: GGGAGUUCUACAGUCCGACGAUCAUCGGGACCAGAAACCUGGGAGAGACUUGGAUGAGGAGUGGUUGGGCUGUGCCUGGGCCUAGCACGGACAUGGUCUGUCCUGACAGCACUCCUCGGCAGGCAUGGCUGGUGCCUGAAGACCAACAGAGGAUUGAGCAUCA
B18: chr3:41225420:41225524:+|CDS|ENSG00000168036|unk|FALSE|unique (ssRNA)
RNA: GGGAGUUCUACAGUCCGACGAUCCAUGCGUUCUCCUCAGAUGGUGUCUGCUAUUGUACGUACCAUGCAGAAUACAAAUGAUGUAGAAACAGCUCGUUGUACCGCUGGGACCUUGCAUAACCUUUCCCAUCAUCGUGAGGGCUUCAACAGAGGAUUGAGCAUCA
B19: chrX:120253675:120253799:+|CDS|ENSG00000177485|unk|FALSE|bound_elsewhere (ssRNA)
RNA: GGGAGUUCUACAGUCCGACGAUCUAAAAUUGUUCGUGUUAGAUCAGAUUUGCUUGAUGAGUUAAUUAAAUCAGGGCAGUUAUUAGGAGUGAAAUUUAUAGCAGAGCUUGGUGUCCCAUUGUCACAGGUUAAAAGCAUCUCAGGCAACAGAGGAUUGAGCAUCA
B20: chr12:79451877:79451978:+|3pUTR|ENSG00000067715|msi1|total|mutant (ssRNA)
RNA: GGGAGUUCUACAGUCCGACGAUCCCUUCAUUUUUGAUGAGGUGAUUUAAAUUUUGUUUCACUUUGUGCCGUGAAUUCCACAGCCGUUUUCUGAUUGUUGUUAAAAAUGACUUAACAUAUUACACAGAUAUUCAAUAAAAAUGUCAACAGAGGAUUGAGCAUCA
B21: ENSG00000198589:be:win_9351|3pUTR|ENSG00000198589|bound_else_gene|NA|bound_elsewhere_windowed (ssRNA)
RNA: GGGAGUUCUACAGUCCGACGAUCAGCCACUGUUGUUUUGUUGGGGCACCCCCUUCCCUCCCCGGGUUUGCAAAUAGAGGCUACCGGGUGCUGUAUUCAGCAACACCUGUUUUACUAUUUGUUAUUAAACUAUCAUCUCCACCUCAACAGAGGAUUGAGCAUCA
B22: chr2:159349074:159349175:-|CDS|ENSG00000123636|unk|total|mutant (ssRNA)
RNA: GGGAGUUCUACAGUCCGACGAUCUGGUGUGGUUACUUCUAAUAUUCCAUUUACAUCAUCUGUACCCCGUCCCGGAUCGGGGUCCGGGUUAUCAGAAGGAAAUGGUAAUUCAUUCUUGACUUCCAAUGUUGCUUCAAGUAAAAGCAACAGAGGAUUGAGCAUCA

The other results are listed elsewhere or left out.

In the test the target is MSI1 full-length (mouse, UniProt Q61474 1-362). Kind of test: nsRBNS (natural sequence RNA bind-n-seq); RBNS binding buffer (assumed for nsRBNS): 25 mM Tris pH 7.5, 150 mM KCl, 3 mM MgCl2, 0.01% Triton X-100, 500 ug/ml BSA, 20 U/ml SUPERase-In, 4 C; UNK is unkempt and MSI1 is Musashi-1; names of the RNAs are library labels; protein concentration not given here; high values mean tight binding.
Sequence of UniProt Q61474 (Q61474 whole entry): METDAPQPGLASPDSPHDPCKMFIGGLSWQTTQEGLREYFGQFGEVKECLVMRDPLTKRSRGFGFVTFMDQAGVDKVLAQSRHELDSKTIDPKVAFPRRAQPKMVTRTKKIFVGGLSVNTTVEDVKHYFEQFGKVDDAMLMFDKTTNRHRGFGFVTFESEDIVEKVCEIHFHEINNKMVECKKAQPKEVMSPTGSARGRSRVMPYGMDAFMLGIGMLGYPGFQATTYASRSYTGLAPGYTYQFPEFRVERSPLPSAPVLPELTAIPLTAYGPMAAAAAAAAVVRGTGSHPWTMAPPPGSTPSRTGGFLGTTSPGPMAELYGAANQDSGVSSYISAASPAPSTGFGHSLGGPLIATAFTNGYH
With B1, the binding signal is 2.31 enrichment R. Then B2, with 0.479 enrichment R; and B3, with 0.474 enrichment R. For B4 the value was 0.605 enrichment R. For B5 the value was 1.23 enrichment R; for B6, 3.67 enrichment R; for B7, 1.26 enrichment R. For B8, the binding signal worked out at 0.662 enrichment R. B9 gave a binding signal of 0.402 enrichment R. Then B10, with 0.648 enrichment R; and B11, with 0.414 enrichment R; and B12, with 0.306 enrichment R. For the molecule B13, the binding signal stood at 4.78 enrichment R.

In turn, B14 yielded a binding signal of 0.701 enrichment R. In turn, B15 came in with a binding signal of 0.859 enrichment R. Then B16, with 0.615 enrichment R. Then B17, with 0.537 enrichment R; and B18, with 0.513 enrichment R. For B19 the value was 12.6 enrichment R; for B20, 0.433 enrichment R; for B21, 0.837 enrichment R. B22: the binding signal turned out to be 0.244 enrichment R.

The values are drawn from article PMC12136788.
